{"source": "PubChem BioAssay AID1508642", "about": "(National Center for Advancing Translational Sciences (NCATS), 2021)", "note": "Out of some 43,000 compounds screened, about 200 (0.47%) were called active. Not shown: some 12% with an inconclusive outcome. The call rests on the fitted dose curve; in most records, active means well fitted cell-killing curve with a large enough effect; inconclusive means small, poorly fitted or top-dose-only effect, or effect the other way; inactive means flat fitted curve, though single readings scatter. This is one part of the list. On the % scale 0 is the no-effect control and ±100 the full control effect."}
{"experiment": "Cell viability qHTS assay in S16 Pmp22-F2sN cells; further: nearly all actives have a fitted effect of over 65% in size", "conditions": "S16 Pmp22-F2sN Schwann cells (luciferase reporters placed in the Pmp22 gene) viability, CellTiter-Glo, 24 h; series mostly up to 57.5 µM; activity change, negative = cytotoxicity: at the top concentration", "summary_of_the_method": "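Seed 500-1,000 S16 Pmp22-F2sN cells per well in phenol-red-free DMEM with 10% heat-inactivated FBS; pin-add 23 nL compound; incubate 24 h at 37C; add CellTiter-Glo, wait 15 min protected from light; read luminescence.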"}
{"smiles": "CC(=O)c1cccc(NC(=O)CN2C(=O)c3ccccc3Sc3ncccc32)c1", "activity change, negative = cytotoxicity": "inactive: 2.14%"}
{"smiles": "Cc1c(C)n(Cc2ccccc2)c2ccc(C(=O)NCc3ccccc3F)cc12", "activity change, negative = cytotoxicity": "inactive: -10.2%"}
{"smiles": "O=C(c1cnn(-c2cccc(F)c2)c1-n1cccc1)N1CCN(c2ccccc2F)CC1", "activity change, negative = cytotoxicity": "inactive: -3.25%"}
{"smiles": "COc1ccccc1NC(=O)NCCCN1CCN(c2ccc(F)cc2)CC1", "activity change, negative = cytotoxicity": "inactive: 0.797%"}
{"smiles": "Cc1ccc(N2C(=O)CC(c3ccccc3F)C3=C2COC3=O)cc1Cl", "note": "(stereo not drawn)", "activity change, negative = cytotoxicity": "inactive: 13.9%"}
{"smiles": "CCc1ccccc1NC(=O)Cn1c(=O)n(Cc2ccco2)c(=O)c2ccccc21", "activity change, negative = cytotoxicity": "inactive: 6.8%"}
{"smiles": "COc1ccc(-c2c(C#N)c(SCC(=O)Nc3cccc(Cl)c3)nc(C)c2C(=O)Nc2ccccc2)cc1OC", "activity change, negative = cytotoxicity": "inactive: 2.17%"}
{"smiles": "CCc1nnc2c(N3CCN(c4cccc(C)c4)C(C)C3)nc3ccccc3n12", "note": "(stereo not drawn)", "activity change, negative = cytotoxicity": "inactive: 14%"}
{"smiles": "Cc1cccc(S(=O)(=O)Nc2cccc(-c3ccc(N4CCCCC4)nn3)c2)c1", "activity change, negative = cytotoxicity": "inactive: 0.295%"}
{"smiles": "CCN(CC)C(=O)Cn1c(=O)n(-c2ccc(Cl)c(Cl)c2)c(=O)c2c(C)c(C(=O)N(CC)CC)sc21", "activity change, negative = cytotoxicity": "inactive: -13.1%"}
{"smiles": "COc1ccc(CCNC(=O)Cc2c(C)c3cc4c(C(C)(C)C)coc4c(C)c3oc2=O)cc1OC", "activity change, negative = cytotoxicity": "inactive: -28.8%"}
{"smiles": "Cc1cc(C)c2c(c1)NC(=O)C2(O)c1c[nH]c2ccccc12", "note": "(stereo not drawn)", "activity change, negative = cytotoxicity": "inactive: -1.31%"}
{"smiles": "Cc1ccc2c(c1)cc1c(=O)n(Cc3cccc(Cl)c3)nc(C)n12", "activity change, negative = cytotoxicity": "inactive: 5.85%"}
{"smiles": "COc1ccc(Nc2oc(-c3ccc(COc4cccc(C)c4)o3)nc2C#N)cc1", "activity change, negative = cytotoxicity": "inactive: -3.74%"}
{"smiles": "COC(=O)c1cc(NC(=O)CCc2c(C)nc3c(c(C)nn3C(C)(C)C)c2C)cc(C(=O)OC)c1", "activity change, negative = cytotoxicity": "inactive: -7.18%"}
{"smiles": "Cn1nnnc1SCCCNCc1ccc(Cl)cc1", "activity change, negative = cytotoxicity": "inactive: -0.798%"}
{"smiles": "Cc1ccc(C(=O)N(Cc2ccco2)Cc2sccc2C)cc1", "activity change, negative = cytotoxicity": "inactive: -2.94%"}
{"smiles": "CC1CCc2onc(C(=O)N3CCN(c4ccccc4)CC3)c2C1", "note": "(stereo not drawn)", "activity change, negative = cytotoxicity": "inactive: -0.176%"}
{"smiles": "O=C(COc1ccccc1F)Nc1ccccc1C(=O)OCc1cc(=O)n2nc(C3CC3)sc2n1", "activity change, negative = cytotoxicity": "inactive: 6.73%"}
{"smiles": "O=C(NCc1ccc(Cl)cc1)c1cc2c(s1)-c1ccccc1SC2", "activity change, negative = cytotoxicity": "inactive: 16%"}
{"smiles": "O=C(Nc1cc(Cl)ccc1Cl)c1cc(S(=O)(=O)NCCc2ccccc2)ccc1F", "activity change, negative = cytotoxicity": "inactive: -9.23%"}
{"smiles": "Cc1nc(N2CCOCC2)c2c(C(=O)N3CCN(c4ccccc4F)CC3)c(C)oc2n1", "activity change, negative = cytotoxicity": "inactive: -1.87%"}
{"smiles": "Cc1ccc(CN2COc3ccc4c(C)cc(=O)oc4c3C2)cc1", "activity change, negative = cytotoxicity": "inactive: 3.35%"}
{"smiles": "CCN1CCN(c2ncc3c(n2)CCN(Cc2cc(Br)cs2)C3)CC1", "activity change, negative = cytotoxicity": "inactive: -12.2%"}
{"smiles": "CCC(C)NC(=O)c1cc2cc(S(=O)(=O)N3CCCCC3)ccc2n1C", "note": "(stereo not drawn)", "activity change, negative = cytotoxicity": "inactive: -19.3%"}
{"smiles": "Cc1c(O)nc(SCC(=O)Nc2ccc(Cl)cc2Cl)n(-c2ccc(F)cc2)c1=O", "activity change, negative = cytotoxicity": "inactive: 3.93%"}
{"smiles": "O=C(NCC(c1ccc2c(c1)OCO2)N1CCOCC1)c1ccccc1", "note": "(stereo not drawn)", "activity change, negative = cytotoxicity": "inactive: 5.97%"}
{"smiles": "Cc1nn(C)c2c1c(C(F)(F)F)cc(=O)n2CC(=O)NCc1ccc(OC(C)C)cc1", "activity change, negative = cytotoxicity": "inactive: -21.9%"}
{"smiles": "CCC(C)c1ccc(OCC(=O)Nc2cccc3ccc(C)nc23)cc1", "note": "(stereo not drawn)", "activity change, negative = cytotoxicity": "inactive: 0.252%"}
{"smiles": "Cc1ccc(CNS(=O)(=O)c2ccc(N3CCCCS3(=O)=O)cc2)cc1", "activity change, negative = cytotoxicity": "inactive: -26.7%"}
{"smiles": "O=C(CNC(=O)c1ccc(Cl)cc1)OCc1cc(=O)n2nc(C3CC3)sc2n1", "activity change, negative = cytotoxicity": "inactive: -4%"}
{"smiles": "Cc1cn(C)c(CC(=O)NCc2cccc(Cl)c2)c1C(=O)O", "activity change, negative = cytotoxicity": "inactive: -0.461%"}
{"smiles": "CC(C)(C)c1ccc(S(=O)(=O)N2CCC(Oc3ccc(-n4cnnn4)cc3)CC2)cc1", "activity change, negative = cytotoxicity": "inactive: 4.45%"}
{"smiles": "COc1cc(Cn2c(=O)oc3ccc(C)cc32)ccc1OCCC(C)C", "activity change, negative = cytotoxicity": "inactive: -23.4%"}
{"smiles": "CC(C)(C)c1ccc(CSC2=Nc3ccccc3C3=NC(CC(=O)NCc4cccs4)C(=O)N23)cc1", "note": "(stereo not drawn)", "activity change, negative = cytotoxicity": "inactive: -3.46%"}
{"smiles": "CN1c2ccc(Cl)cc2-c2nc(SCC(=O)NCc3ccc(F)cc3)ncc2S1(=O)=O", "activity change, negative = cytotoxicity": "inactive: 5.89%"}
{"smiles": "CC1=C(C(=O)Nc2ccc(C)cc2C)C(c2ccccc2)n2nc(SCC(=O)c3ccc(C)cc3)nc2N1", "note": "(stereo not drawn)", "activity change, negative = cytotoxicity": "inactive: -1.63%"}
{"smiles": "O=C(CSc1nc2ccsc2c(=O)n1Cc1ccc(F)cc1)NCc1ccc(Cl)cc1", "activity change, negative = cytotoxicity": "inactive: -2.52%"}
{"smiles": "COc1ccc(NC(=O)Cn2c(=O)oc3ccccc32)cc1", "activity change, negative = cytotoxicity": "inactive: 5.86%"}
{"smiles": "CCc1ccccc1NC(=O)CCNS(=O)(=O)c1ccc2c(c1)CCCC(=O)N2", "activity change, negative = cytotoxicity": "inactive: 6.66%"}
{"smiles": "COc1cccc2sc(NC(=O)c3ccc4c(c3)OCCO4)nc12", "activity change, negative = cytotoxicity": "inactive: 2.77%"}
{"smiles": "CCc1nc2ccc(C(=O)N3CCN(c4ccccc4F)CC3)cc2nc1CC", "activity change, negative = cytotoxicity": "inactive: -25.8%"}
{"smiles": "Cc1ccc(Cl)cc1N1CCN(C(=O)Cn2cnc3onc(-c4ccc(F)cc4)c3c2=O)CC1", "activity change, negative = cytotoxicity": "inactive: -6.02%"}
{"smiles": "CC(=O)c1ccc(NC(=O)Cn2nc(C(F)(F)F)c3c2CCC3)cc1", "activity change, negative = cytotoxicity": "inactive: -4.76%"}
{"smiles": "Cc1ccc(CSc2c(C)cnc3c2c(=O)n(C)c(=O)n3C)cc1", "activity change, negative = cytotoxicity": "inactive: 1.18%"}
{"smiles": "CCCCNC(=O)CCC1N=C2c3ccccc3N=C(SCC(=O)NCCc3ccc(OC)c(OC)c3)N2C1=O", "note": "(stereo not drawn)", "activity change, negative = cytotoxicity": "inactive: 5.73%"}
{"smiles": "Cc1ccc2nc(-c3ccc(NC(=O)Cc4ccccc4)cc3)sc2c1", "activity change, negative = cytotoxicity": "inactive: -2.98%"}
{"smiles": "CCN(CC)CCNC(=O)CCn1c(=O)c2cccn2c2cccnc21", "activity change, negative = cytotoxicity": "inactive: 9.9%"}
{"smiles": "Cc1ccc(CNC(=O)CCNS(=O)(=O)c2ccc3c(c2)oc(=O)n3C)cc1", "activity change, negative = cytotoxicity": "inactive: 8.7%"}
{"smiles": "O=C(COc1ccc(Br)cc1Br)Nc1ccc(S(=O)(=O)Nc2ncccn2)cc1", "activity change, negative = cytotoxicity": "inactive: -2.69%"}
{"smiles": "Cc1cc(C)c(S(=O)(=O)Nc2ccc3oc(C)c(C(=O)OC(C)C)c3c2)cc1C", "activity change, negative = cytotoxicity": "inactive: -0.568%"}
{"smiles": "Cc1oc(-c2cccc(Cl)c2)nc1CN1CCC(C(=O)NC(C)C)CC1", "activity change, negative = cytotoxicity": "inactive: 5.61%"}
{"smiles": "Cc1ccc(Cl)cc1NC(=O)Cn1c(=O)cc(C)c2c(C)nn(C)c21", "activity change, negative = cytotoxicity": "inactive: 19.4%"}
{"smiles": "Cc1ccc(NC(=O)CC2Oc3ccc(C)cc3NC2=O)c(C)c1", "note": "(stereo not drawn)", "activity change, negative = cytotoxicity": "inactive: -2.78%"}
{"smiles": "CCOc1ccc(NC(=O)Cn2c(=O)n(CCc3ccccc3)c(=O)c3c4c(sc32)CCCC4)cc1", "activity change, negative = cytotoxicity": "inactive: 10.3%"}
{"smiles": "COc1cccc(Nc2nnc(-c3cc4ccc(O)cc4oc3=O)s2)c1", "activity change, negative = cytotoxicity": "inactive: 4.31%"}
{"smiles": "O=C(CCn1c(=O)c2sccc2n(Cc2ccc(F)cc2)c1=O)NCc1ccc2c(c1)OCO2", "activity change, negative = cytotoxicity": "inactive: 13.1%"}
{"smiles": "COc1cccc(C2CC(=O)Nc3c2c(=O)n(C)c2nc4ccccc4n32)c1OC", "note": "(stereo not drawn)", "activity change, negative = cytotoxicity": "inactive: -4.14%"}
{"smiles": "Cc1ccc(-n2nc3cc(C)c(NC(=O)c4ccc(-c5ccccc5)o4)cc3n2)cc1", "activity change, negative = cytotoxicity": "inactive: -14.8%"}
{"smiles": "CCOc1ccccc1CNCCCSc1nnnn1C", "activity change, negative = cytotoxicity": "inactive: -0.126%"}
{"smiles": "COc1cccc(CNC(=O)Cn2ncc3c(=O)oc4ccccc4c32)c1", "activity change, negative = cytotoxicity": "inactive: -11.1%"}
{"smiles": "Cc1ccc(CSc2cn(CC(=O)N3CCCCCC3)c3ccccc23)cc1", "activity change, negative = cytotoxicity": "inactive: -25.4%"}
{"smiles": "CCCN(Cc1cc2cccc(C)c2[nH]c1=O)C(=O)c1cccc(Cl)c1", "activity change, negative = cytotoxicity": "inactive: -16.7%"}
